This is one part of the list. At the low end of the ranking, values are background and their order means little.

The assay has as its target SIX1-Q177R homeodomain (UniProt Q15475). The assay is described as follows: universal protein binding microarray. As to conditions: Universal all-10-mer PBM (8x60K, AMADID 030236), 300 nM GST-tagged protein, Alexa Fluor 488 anti-GST; buffer, salt, pH and temperature not stated; high values mean tight binding; most listed sequences are background and not binding sites; double strand, one strand shown.
For the sequence TCAACAGA, the binding signal was -0.172 E-score.
As for AATCTGGC, the binding signal is -0.207 E-score.
As for CATGCCGC, the figure is -0.0895 E-score; as for ACAGCTAC, 0.0797 E-score; as for CAACCTTA, -0.106 E-score.
As for ATTGCCTA, the figure is -0.0975 E-score; as for TCGACCAA, -0.071 E-score.
In the case of CGGAGCTC it was -0.0203 E-score.
In the case of GCCGTGGA, the binding signal was -0.197 E-score.
As for AGGACTGA, the figure is -0.129 E-score; as for GATCGCCC, 0.0409 E-score; as for AACTCGTC, -0.0755 E-score.
In the case of AACTGGTG it was 0.364 E-score; in that of GGATCGCA, 0.0478 E-score.
As for ATGTAGAA, the figure is -0.0541 E-score; as for CCAACAGA, -0.016 E-score.
Turning to GATCGCGA, the binding signal is -0.106 E-score.
As for AGTTTTAG, the figure is -0.0868 E-score.
As for CATAAAAG, the figure is -0.00804 E-score.
As for GCTATTAA, the figure is -0.045 E-score.
Consider AACACCAT, for which the binding signal was found to be 0.457 E-score.
In the case of CGTGTCCA it was 0.4 E-score; in that of CCTGTGGC, -0.01 E-score.
As for CCTGTGAA, the figure is -0.0773 E-score; as for CTCACCTC, -0.104 E-score; as for TCATAACA, 0.23 E-score.
As for GAATCATC, the figure is -0.0859 E-score.
For ACTCATTC, the binding signal was -0.0983 E-score.
As for ACGACCTC, the figure is 0.193 E-score.
Take GGTGGATA: the binding signal was determined as 0.156 E-score.
As for ATTTGCGC, the figure is -0.163 E-score.
On to GCTCTTCA, for which the binding signal was -0.147 E-score.
As for CTAAAGAG, the figure is -0.0571 E-score; as for AGAAACGG, 0.152 E-score; as for CAATGGCC, -0.256 E-score.
GGAAAAGA: the binding signal is -0.287 E-score.
As for GCGGTGTA, the figure is 0.485 E-score.
As for AGCAACAT, the figure is -0.173 E-score; as for CGCCCCTA, -0.0252 E-score.
As for ATGATTGG, the binding signal was -0.181 E-score.
As for CGGGCCAG, the figure is 0.127 E-score; as for AACAAGCC, -0.214 E-score; as for CACGCAGA, 0.137 E-score.
As for CATTCCAG, the figure is -0.0941 E-score; as for CTGGGAAA, -0.0591 E-score.
ACGCGATA: the binding signal is 0.124 E-score.
In the case of ATTGCTAC, the binding signal is -0.176 E-score.
In the case of CCAATTAA it was -0.0861 E-score; in that of AGGGAGTG, 0.163 E-score.
In the case of CGCGCCGC it was 0.0029 E-score; in that of AATGGTTA, -0.288 E-score; in that of AAGGTACT, 0.0685 E-score.
Consider GGACTTAC, for which the binding signal was -0.117 E-score.
In the case of AGGGTCGA it was 0.0871 E-score; in that of ACTGAAAG, -0.0913 E-score.
In the case of ATTTGGTG it was 0.26 E-score; in that of AGTGTACG, 0.407 E-score; in that of GCTCACCA, -0.174 E-score.
As for CTCATCAA, the figure is -0.224 E-score.
As for CGAGCTGC, the binding signal is -0.0893 E-score.
For AGATTGAG, the binding signal was -0.174 E-score.
In the case of AATCAGAG it was -0.0609 E-score; in that of ACCGCAGT, 0.0687 E-score.
As for CTGCACAA, the figure is -0.0171 E-score; as for ATTGGGAA, -0.257 E-score.
Regarding TGAACGCA, the binding signal is -0.158 E-score.
For the sequence CTGCGACA, the binding signal is 0.195 E-score.
In the case of ACGGAGCA it was 0.0445 E-score; in that of GCCTATCA, -0.0411 E-score; in that of TCCGCGAA, 0.126 E-score.
For the sequence GCGACAAC, the binding signal is -0.0776 E-score.
On to AGGACCGG, for which the binding signal is -0.237 E-score.
As for AACATGGT, the figure is 0.0141 E-score; as for CAAGATAG, 0.0837 E-score.
In the case of ATTCTACC it was 0.0876 E-score.
Take CGAACGAG: the binding signal turned out to be 0.0669 E-score.
As for CCGGGGGC, the figure is 0.126 E-score.
In the case of CGGTCGCC it was -0.0949 E-score.
As for ATCTGGTA, the binding signal was determined as 0.091 E-score.
As for GGCCTCAC, the figure is -0.065 E-score; as for AGGACGAT, -0.0369 E-score.
For CAAATGCA, the binding signal was -0.1 E-score.
As for TCTGTACA, the figure is 0.0322 E-score; as for AAAGGCAA, -0.2 E-score.
For CGTCGTCC, the binding signal was -0.185 E-score.
In the case of AGTTTCAT it was -0.131 E-score.
As for ATGCCATC, the figure is -0.172 E-score; as for ACCAGTAC, 0.151 E-score; as for AGATGTTC, -0.295 E-score.
As for ATTGGGGA, the figure is 0.168 E-score; as for ACGAACGC, -0.0636 E-score; as for CATATAGC, -0.0104 E-score.
Regarding ACCTGTAA, the binding signal was -0.0835 E-score.
In the case of AAGGCGCA, the binding signal was determined as 0.0219 E-score.
In the case of ATTCGAAC it was -0.0182 E-score.
As for GACAGAGC, the figure is -0.176 E-score; as for CTTCTAAA, -0.142 E-score; as for GCACGCGC, -0.0284 E-score.
As for GCCGGAAC, the figure is -0.0726 E-score.
Regarding CCGCGTCC, the binding signal was -0.0369 E-score.
GGCTGTCA: the binding signal is -0.229 E-score.
In the case of AGAATACT it was -0.0672 E-score; in that of ACGGAAAC, 0.0112 E-score; in that of AGTGCAGA, -0.128 E-score.
As for AGTACGGC, the figure is 0.0268 E-score; as for ATGCATCA, -0.236 E-score.
In the case of GCCCCGCC it was 0.175 E-score.
Take CCTCAGGC: the binding signal is -0.161 E-score.
In the case of GGGCTGCA it was -0.215 E-score; in that of AACATAGA, -0.0792 E-score; in that of TCCTTAGA, 0.0278 E-score.
As for ACAGGAAC, the figure is -0.0963 E-score.
In the case of GTCGTGTA it was 0.438 E-score.
For the sequence GCTGACCA, the binding signal is -0.0425 E-score.
In the case of GGCGAATA it was -0.0499 E-score; in that of GGCTCGGA, -0.119 E-score; in that of ATCATTCC, -0.119 E-score.
In the case of CAGTGCTC it was 0.0709 E-score.
In the case of AACAAAGA it was -0.142 E-score.
Regarding AGTCTACC, the binding signal was -0.198 E-score.
Take CAGCCCAA: the binding signal is -0.081 E-score.
As for GGCCTCTA, the figure is -0.0796 E-score.
As for GAGCACTC, the figure is 0.0801 E-score.
In the case of CCGCCCTA it was 0.0369 E-score.
As to AATCCGCT, the binding signal was determined as 0.0295 E-score.
As for TACCAACA, the figure is 0.167 E-score; as for ACGCGGTG, 0.334 E-score.
In the case of AGCGGATA it was -0.0232 E-score; in that of AGGCGTTC, -0.0898 E-score; in that of CTCCCGAG, 0.108 E-score.
As for AGAAGCCC, the figure is -0.216 E-score; as for TGCCTTAA, -0.208 E-score.
On to GTGGAGTA, for which the binding signal was determined as 0.29 E-score.
In the case of AATAATAG it was -0.13 E-score.
In the case of CCCAATTA, the binding signal was found to be 0.0345 E-score.
As for CCTGAGGC, the figure is -0.0265 E-score; as for AAAAGTTT, -0.138 E-score.
As for GTTAGCGA, the figure is 0.114 E-score; as for ACACTTCT, 0.374 E-score.
In the case of TCCCAGGA it was -0.0813 E-score; in that of TCTAGTCA, -0.124 E-score; in that of TCGCGGCA, -0.05 E-score.
As for ATAAGAAC, the binding signal is -0.112 E-score.
For CGAACGTA, the binding signal was -0.0625 E-score.
As for AAGGCTCC, the figure is -0.175 E-score.
In the case of AGGATTAC it was 0.0105 E-score; in that of GCATAGCA, -0.144 E-score; in that of TATGATAA, 0.0472 E-score.
In the case of TAAGCGCA, the binding signal was -0.229 E-score.
Regarding CAAATAGC, the binding signal was -0.252 E-score.
In the case of GGAATGCA it was -0.185 E-score; in that of GCACGGCA, -0.216 E-score.
In the case of ATAAATAT it was -0.119 E-score.
In the case of AGTTTATC it was 0.208 E-score; in that of CTTGTATC, 0.0319 E-score; in that of AAAGGATT, -0.0878 E-score.
Regarding ATAGAACC, the binding signal is -0.12 E-score.
As for AACTGCGT, the figure is -0.0421 E-score.
For GCGATACC, the binding signal worked out at 0.311 E-score.
As to ACGCTGGA, the binding signal was 0.121 E-score.
For GTGGCACA, the binding signal came to 0.00358 E-score.
As for ATTGTATC, the figure is -0.0445 E-score; as for CAAGCCCG, 0.0225 E-score; as for AATTTACA, 0.182 E-score.
In the case of AGAACACT, the binding signal was determined as 0.344 E-score.
In the case of GTGACCAA it was -0.107 E-score.
In the case of CTGTGTCA it was 0.256 E-score; in that of AAGCCCAA, -0.0238 E-score; in that of GGATATAA, -0.0376 E-score.
Turning to GATATTAA, the binding signal is 0.0648 E-score.
As for ACTGTCCA, the binding signal is -0.0571 E-score.
With GGACGCCC, the binding signal turned out to be 0.043 E-score.

The values are drawn from article PMC10668032.
